Laboratory results from the supplement of paper PMC11166567.
This is one part of the list.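 Rule for the calls: active = permutation test q below 0.05 after Benjamini-Hochberg correction; inactive = q of 0.05 or more.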

Tested on: U2OS
Assay: mean average precision of replicate retrieval against DMSO controls (Cell Painting phenotypic activity) (fraction (0-1)); higher = stronger, more reproducible morphological phenotype distinct from DMSO; extreme values may be limits of the assay
Conditions: 24 h; 5 µM
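Note: cosine similarity of well-level aggregated Cell Painting profiles ranks each compound's replicate wells against DMSO wells, four replicate plates, significance from 100,000 rank shuffles.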

For O/N=C/c1ccc(-c2ccc(O)c(F)c2)c(Cl)c1O, which mean average precision is on record?
The mean average precision was active: 0.534.

Which mean average precision does the source give for Cc1nc(Nc2n[nH]c3c2CN(C(=O)N[C@H](CN(C)C)c2ccccc2)C3(C)C)c2sccc2n1 here?
The mean average precision was active: 0.415.

For C/C(=C\c1csc(C)n1)[C@@H]1C[C@@H]2O[C@]2(C)CCC[C@H](C)[C@H](O)[C@@H](C)C(=O)C(C)(C)[C@@H](O)CC(=O)N1, which mean average precision is on record?
The mean average precision was active: 1.

How did the mean average precision turn out when Cc1ccc(Sc2cncc3sc(C(N)=O)cc23)cc1 was run?
Its mean average precision is active: 1.

Which mean average precision does the source give for CC1(C)CNc2cc(NC(=O)c3cccnc3NCc3ccncc3)ccc21 here?
Its mean average precision is active: 1.

Which mean average precision does the source give for FC(F)OC(Cl)C(F)(F)F (centres undefined) here?
The mean average precision was inactive: 0.0824.

Which mean average precision does the source give for CCOC(=O)C1=C(C)NC(C)=C(C(=O)OC)C1c1cccc(Cl)c1Cl (centres undefined) here?
The mean average precision was inactive: 0.216.

How did the mean average precision turn out when c1ccc(C(O[C@@H]2CCCN(CCc3ccc4c(c3)OCO4)C2)c2ccccc2)cc1 was run?
The mean average precision was inactive: 0.236.

For CN(C)c1ccc(O)c2c1C[C@H]1C[C@H]3[C@H](N(C)C)C(=O)C(C(N)=O)C(=O)[C@@]3(O)C(=O)C1C2=O (some centres undefined), which mean average precision is on record?
Its mean average precision is active: 0.533.

Which mean average precision does the source give for CC(=O)Oc1cccc2c1C(=O)c1c(OC(C)=O)cc(C(=O)O)cc1C2=O here?
Its mean average precision is inactive: 0.0967.

For Nc1ncnc2c1c(-c1cccc(OCc3ccccc3)c1)cn2C1CC(CN2CCCC2)C1 (centres undefined), which mean average precision is on record?
The mean average precision was active: 1.

How did the mean average precision turn out when O=C(O)c1ccccc1Nc1cccc(C(F)(F)F)c1 was run?
The mean average precision was active: 0.669.

Which mean average precision does the source give for CCC(C)(C)C(=O)O[C@H]1C[C@@H](C)C=C2C=C[C@H](C)[C@H](CC[C@@H]3C[C@@H](O)CC(=O)O3)[C@H]21 here?
The mean average precision was active: 1.

For N#CC1(c2ccc(NC(=O)c3cccnc3NCc3ccncc3)cc2)CCCC1, which mean average precision is on record?
The mean average precision was active: 0.622.

COC1=C2C[C@@H](C)C[C@H](OC)[C@H](O)[C@@H](C)/C=C(\C)[C@H](OC(N)=O)[C@@H](OC)/C=C/C=C(\C)C(=O)NC(=CC1=O)C2=O was tested. Which mean average precision did it give?
The mean average precision was active: 1.

For Cc1ccc(-n2sc(=O)n(Cc3ccc(F)cc3)c2=O)cc1, which mean average precision is on record?
The mean average precision was active: 0.38.

CCn1cc(-c2ccnc3[nH]c(-c4cccc(CN(C)C)c4)cc23)c(-c2ccc(NC(=O)N(C)C)cc2)n1 was tested. Which mean average precision did it give?
Its mean average precision is active: 1.

Which mean average precision does the source give for CC(C)CC(=O)Nc1n[nH]c2c1CN(C(=O)C1CCN(C)CC1)C2(C)C here?
Its mean average precision is active: 1.

With Cc1cc2c(s1)Nc1ccccc1N=C2N1CCN(C)CC1 as the molecule, how does the mean average precision read?
The mean average precision was active: 0.418.

How did the mean average precision turn out when O=C(NCCN1CCC(n2c(=O)[nH]c3cc(Cl)ccc32)CC1)c1ccc(F)cc1 was run?
Its mean average precision is active: 1.

CCOC(=O)C1=C(COCCN)NC(C)=C(C(=O)OC)C1c1ccccc1Cl (centres undefined) was tested. Which mean average precision did it give?
Its mean average precision is active: 1.

Which mean average precision does the source give for Cn1cc(-c2ccc3nnc(Sc4ccc5ncccc5c4)n3n2)cn1 here?
Its mean average precision is inactive: 0.198.

How did the mean average precision turn out when O=C(O)c1ccc(-n2nc(-c3ccccc3O)nc2-c2ccccc2O)cc1 was run?
The mean average precision was active: 1.

Which mean average precision does the source give for COc1c2occc2cc2ccc(=O)oc12 here?
Its mean average precision is inactive: 0.24.

For CC(=O)Oc1cc2c(s1)CCN(C(C(=O)C1CC1)c1ccccc1F)C2 (centres undefined), which mean average precision is on record?
Its mean average precision is active: 0.861.

Which mean average precision does the source give for COCCOC(=O)C1=C(C)NC(C)=C(C(=O)OC(C)C)C1c1cccc([N+](=O)[O-])c1 (centres undefined) here?
Its mean average precision is inactive: 0.206.

How did the mean average precision turn out when C=C(NC(=O)C(=C)NC(=O)c1csc(C2=NC3c4csc(n4)C4NC(=O)c5csc(n5)C(C(C)(O)C(C)O)NC(=O)C5CSC(=N5)C(=CC)NC(=O)C(C(C)O)NC(=O)c5csc(n5)C3(CC2)NC(=O)C(C)NC(=O)C(=C)NC(=O)C(C)NC(=O)C(C(C)CC)NC2C=Cc3c(C(C)O)cc(nc3C2O)C(=O)OC4C)n1)C(N)=O (centres undefined) was run?
Its mean average precision is active: 1.

Which mean average precision does the source give for CCOC(=O)c1cc(C#N)c(N2CCC(C(=O)NS(=O)(=O)Cc3ccccc3)CC2)nc1C here?
Its mean average precision is active: 0.733.

For OCCn1cc(-c2cnc3nnn(Cc4ccc5ncccc5c4)c3n2)cn1, which mean average precision is on record?
Its mean average precision is inactive: 0.0804.

With NC(CO)(CO)CO as the molecule, how does the mean average precision read?
Its mean average precision is active: 0.409.

With CCCCOc1cc(CC2CNC(=O)N2)ccc1OC (centres undefined) as the molecule, how does the mean average precision read?
Its mean average precision is inactive: 0.0982.

CCCCc1nc(-c2ccc(OCCCN(CC)CC)cc2)cn1-c1ccc(Oc2ccc(Cl)cc2)cc1 was tested. Which mean average precision did it give?
Its mean average precision is active: 1.

How did the mean average precision turn out when CC(OC(=O)NCC1(CC(=O)O)CCCCC1)OC(=O)C(C)C (centres undefined) was run?
Its mean average precision is active: 0.861.

How did the mean average precision turn out when C=C[C@H]1CN2CC[C@H]1C[C@@H]2[C@H](O)c1ccnc2ccc(OC)cc12 was run?
Its mean average precision is active: 0.456.
